{"source": "PubChem BioAssay AID463173", "about": "(ICCB-Longwood Screening Facility, Harvard Medical School, 2010)", "note": "Screen size: about 52,000 compounds; about 1,700 (3.3%) were called active. Cut-off read from the data, not from the text of the source: active = survival mostly below about 52% (no sharp cut-off); inactive = mostly above about 56%. This is one part of the list.", "data": [{"tested_on": "Wild type", "test": "growth inhibition of S. aureus wild type versus tarO mutant, primary screen, teichoic acid synthesis inhibitors, RN4220, OD600 (AID 463173)", "conditions": "S. aureus RN4220 wild type/DeltatarO growth, OD600, 18 h, hits give low values, screened at 18.75 µg/mL (by protocol)", "values": [{"smiles": "CC(CNC(=O)Cc1ccc(NC(=O)N2CCSc3ncccc32)cc1)c1ccccc1", "note": "(stereo not drawn)", "survival": "inactive: 73%"}, {"smiles": "CCOC(=O)C1=C(CN2CCN(c3ccccc3F)CC2)NC(=O)NC1c1ccc(Cl)cc1", "note": "(stereo not drawn)", "survival": "inactive: 76%"}, {"smiles": "COc1ccc(-c2cn3c(n2)sc2cc(C(=O)Nc4cccc(OC)c4)ccc23)cc1", "survival": "inactive: 86%"}, {"smiles": "COC(=O)c1scc(-c2ccc(C)cc2)c1S(=O)(=O)Nc1ccc(N(C)C)cc1", "survival": "inactive: 123%"}, {"smiles": "Cc1ccccc1NCc1cccn1-c1nnc(N2CCC(C)CC2)s1", "survival": "inactive: 68%"}, {"smiles": "Cc1nc2c(-c3ccccc3)c(C)nn2c(C)c1CCC(=O)NCc1ccc(F)cc1", "survival": "inactive: 75%"}, {"smiles": "Cc1c(Cl)cccc1-n1nc(C)c2c(C(=O)NCc3ccccc3)cc(C3CC3)nc21", "survival": "inactive: 73%"}, {"smiles": "CCOc1ccc(NC(=O)CC2C(=O)N(c3ccccc3)C(=O)N2Cc2ccc3c(c2)OCO3)cc1", "note": "(stereo not drawn)", "survival": "inactive: 69%"}, {"smiles": "Cc1ccc(CNC(=O)C2CCN(S(=O)(=O)c3cc(-c4noc(C)n4)ccc3C)CC2)cc1", "survival": "inactive: 136%"}, {"smiles": "Cn1c(=O)oc2cc(S(=O)(=O)Nc3ccccc3O)ccc21", "survival": "inactive: 125%"}, {"smiles": "Cc1ccc(C(=O)Nc2nccs2)c(C)c1", "survival": "inactive: 105%"}, {"smiles": "O=S(=O)(NC1CC1)c1ccc(S(=O)(=O)N2CCC3(CC2)OCCO3)cc1", "survival": "inactive: 103%"}, {"smiles": "O=C(NCc1ccc(Cl)cc1)C1CCN(S(=O)(=O)Cc2ccccc2)CC1", "survival": "inactive: 86%"}, {"smiles": "COc1ccc(-c2cc(C(F)(F)F)nc(SCC(=O)N3CCC(C)CC3)n2)cc1", "survival": "inactive: 55%"}, {"smiles": "Cc1ccc(-c2cc(NC(=O)COc3ccc(Cl)cc3C)on2)cc1", "survival": "inactive: 89%"}, {"smiles": "CCOc1ccc(CCNC(=O)c2cc3c(s2)-c2ccccc2OC3)cc1OCC", "survival": "inactive: 90%"}, {"smiles": "O=c1c(-c2ccc(Cl)cc2)c(C(F)(F)F)oc2c(CN3CCCCC3)c(O)ccc12", "survival": "inactive: 126%"}, {"smiles": "CCCC(CCC)C(=O)Nc1cc(-c2cn3cccnc3n2)ccc1OC", "survival": "inactive: 82%"}, {"smiles": "CCc1ccc(N2C(=O)CSC23C(=O)N(Cc2ccc(C)cc2)c2ccccc23)cc1", "note": "(stereo not drawn)", "survival": "inactive: 66%"}, {"smiles": "O=C(O)CN1C(=O)CC(Cc2ccccc2)C1=O", "note": "(stereo not drawn)", "survival": "inactive: 98%"}, {"smiles": "Cc1ccccc1Nc1c(-c2ccc(Cl)s2)nc2cccc(C)n12", "survival": "inactive: 80%"}, {"smiles": "COc1ccc(S(=O)(=O)c2c(C)c(NS(=O)(=O)c3ccccc3)cc(C)c2O)cc1", "survival": "inactive: 90%"}, {"smiles": "O=C(CSc1nc2c(c(=O)[nH]1)CCC2)Nc1ccccc1C(F)(F)F", "survival": "inactive: 84%"}, {"smiles": "Cc1oc(-c2cccc(Cl)c2)nc1CN1CCC(C(=O)NCCCN2CCN(c3ccc(F)cc3)CC2)CC1", "survival": "inactive: 119%"}, {"smiles": "COc1ccc(Cn2cc(C(=O)c3ccc(C)cc3)c(=O)c3cc(OC)c(OC)cc32)cc1", "survival": "inactive: 81%"}, {"smiles": "CCn1cc(C(=O)NCc2ccccc2)c(=O)c2cc(S(=O)(=O)N3CCc4ccccc4C3)ccc21", "survival": "inactive: 77%"}, {"smiles": "CCOC(=O)C1CCCCN1S(=O)(=O)c1csc(C(N)=O)c1", "note": "(stereo not drawn)", "survival": "inactive: 116%"}, {"smiles": "O=C(c1ccc2c(c1)CCCC2)N1CCN(c2nc3c(F)cccc3s2)CC1", "survival": "inactive: 72%"}, {"smiles": "COc1cc(C(c2c(C)[nH][nH]c2=O)c2c(C)[nH][nH]c2=O)ccc1OC(=O)c1cccc(C)c1", "survival": "inactive: 87%"}, {"smiles": "Cc1ccc(C2=CC(c3ccccc3F)n3c(nc4ccccc43)N2)cc1C", "note": "(stereo not drawn)", "survival": "inactive: 81%"}, {"smiles": "COc1ccc(CC(=O)NCc2ccc3c(c2)CCN3C(=O)c2ccccc2)cc1OC", "survival": "inactive: 99%"}, {"smiles": "CCOC(=O)CN1N=NC2C(=O)N(c3ccccc3)C(=O)C21", "note": "(stereo not drawn)", "survival": "inactive: 102%"}, {"smiles": "COc1ccc(C2=NC(c3ccncc3)=Nc3ccc(Br)cc3N2)cc1", "survival": "inactive: 94%"}, {"smiles": "CCOC(=O)C1CCN(C(c2cccnc2)c2nnnn2Cc2ccccc2)CC1", "note": "(stereo not drawn)", "survival": "inactive: 98%"}, {"smiles": "CCC1CN(Cc2ccccc2)CCC1=O", "note": "(stereo not drawn)", "survival": "inactive: 122%"}, {"smiles": "CN(C)c1ccc(-n2c(CCC(=O)O)ccc2-c2ccccc2)cc1", "survival": "inactive: 65%"}, {"smiles": "CCn1cc(C(=O)N2CCN(c3ccc(F)cc3)CC2)c(=O)c2cc(S(=O)(=O)N(C)C3CCCCC3)ccc21", "survival": "inactive: 85%"}, {"smiles": "CC(C)(C)c1ccc(OCCn2cc(C(=O)c3ccco3)c3ccccc32)cc1", "survival": "inactive: 37%"}, {"smiles": "COc1ccccc1N1CCN(C(CNC(=O)C(=O)NCc2ccc(C)cc2)c2cccnc2)CC1", "note": "(stereo not drawn)", "survival": "inactive: 78%"}, {"smiles": "CCc1cccc(NC(=O)C2CCCN(S(=O)(=O)c3cccs3)C2)c1", "note": "(stereo not drawn)", "survival": "inactive: 96%"}, {"smiles": "Cc1ccc(NS(=O)(=O)c2ccc3c(c2)CC(C)N3C(=O)C2CCC2)cc1Cl", "note": "(stereo not drawn)", "survival": "inactive: 73%"}, {"smiles": "CCOc1ccccc1NC(=O)c1c(NC(=O)C(C)Oc2ccc(Cl)cc2)sc2c1CCCCC2", "note": "(stereo not drawn)", "survival": "inactive: 69%"}, {"smiles": "COc1cc(Cl)c(C)cc1NC(=O)c1cc2c(Cl)nc3ccc(C)cc3c2s1", "survival": "inactive: 80%"}, {"smiles": "Cc1cccc(-c2nc3c(c(SCc4ccccc4Cl)n2)Cc2c(CO)cnc(C)c2O3)c1", "survival": "inactive: 91%"}, {"smiles": "CC(C)CCn1c(=O)c2sccc2n2c(CCCC(=O)NC(C)C)nnc12", "survival": "inactive: 97%"}, {"smiles": "COc1ccc(-c2nc3cc(C)ccn3c2NC(=O)c2ccc(C)c(C)c2)cc1", "survival": "inactive: 99%"}, {"smiles": "CCNC(=O)c1cnc2c(-c3ccccc3)c(C)nn2c1C", "survival": "active: 0%"}, {"smiles": "CNC(=O)CN1C(=O)c2cccnc2Sc2ccccc21", "survival": "inactive: 129%"}, {"smiles": "CC(C)CC1N=C2c3ccccc3N=C(SCC(=O)NCCc3ccc(Cl)cc3)N2C1=O", "note": "(stereo not drawn)", "survival": "inactive: 80%"}, {"smiles": "COc1ccc(-n2c(=O)c3c4c(sc3n(Cc3ccccc3Cl)c2=O)CCC4)c(OC)c1", "survival": "inactive: 68%"}, {"smiles": "Cc1cccc(OCC(=O)Nc2ccccc2OCc2cc(=O)n3ccccc3n2)c1", "survival": "inactive: 100%"}, {"smiles": "COc1cccc(CNC(=O)CN(C)S(=O)(=O)c2ccc3[nH]c4c(c3c2)CCCC4)c1", "survival": "inactive: 83%"}, {"smiles": "OCCNc1nc2nonc2nc1NCCO", "survival": "inactive: 112%"}, {"smiles": "COCc1[nH]nc2c1C(c1ccc(F)c(F)c1)C(C#N)=C(N)O2", "note": "(stereo not drawn)", "survival": "inactive: 109%"}, {"smiles": "Cc1ccc(CN2CCc3nc(N4CCN(c5ccccc5F)CC4)ncc3C2)cc1C", "survival": "inactive: 98%"}, {"smiles": "Cc1cccc(C)c1-n1ncc(C(=O)Nc2ccc3c(c2)OCO3)c1C1CCN(C(=O)OC(C)(C)C)CC1", "survival": "inactive: 73%"}, {"smiles": "COc1cccc(-c2cc(C(F)(F)F)nc(NCCc3ccccc3)n2)c1", "survival": "active: -7%"}, {"smiles": "CCCCOc1ccc(CN2C(=O)C(=O)c3cc(Br)cc(C)c32)cc1OC", "survival": "inactive: 59%"}, {"smiles": "CCOc1ccccc1CNC(=O)C1CCCN(c2ncnc3onc(-c4ccc(F)cc4)c23)C1", "note": "(stereo not drawn)", "survival": "inactive: 85%"}, {"smiles": "O=C(NCc1ccccc1Cl)C1CCCN(C(=O)c2cnn(-c3ccccc3)c2-n2cccc2)C1", "note": "(stereo not drawn)", "survival": "inactive: 83%"}, {"smiles": "COc1ccccc1CCNC(=O)c1ccc2c(c1)c(C)c(C)n2Cc1ccc(Cl)cc1", "survival": "inactive: 77%"}, {"smiles": "Cc1ccc2c(c1)-c1nc(-c3ccc4c(c3)NC(=O)CO4)cc(-c3ccc(F)cc3)c1CO2", "survival": "inactive: 82%"}, {"smiles": "Cc1nc2c(C(=O)NCCc3ccc(Cl)cc3)c[nH]n2c(=O)c1Cc1ccc(Cl)cc1", "survival": "active: -14%"}, {"smiles": "COc1ccccc1C(=O)Nc1c(C(=O)N(C)Cc2ccccc2)sc2nc(C)c(Cl)c(C)c12", "survival": "inactive: 78%"}, {"smiles": "COc1ccc(-c2noc(-c3ccc(N4CCN(C)CC4)c([N+](=O)[O-])c3)n2)cc1OC", "survival": "inactive: 81%"}, {"smiles": "Cc1cc(Br)ccc1NC(=O)C1CCN(S(=O)(=O)c2cccc3nsnc23)CC1", "survival": "inactive: 119%"}, {"smiles": "Cc1ccccc1-c1nnc(CN2CCN(c3ccccn3)CC2)o1", "survival": "inactive: 121%"}, {"smiles": "Cc1cc(C)c(CO)c(C)c1CO", "survival": "inactive: 121%"}, {"smiles": "COCCCNC(=O)C(=O)Nc1c2c(nn1-c1cccc(Cl)c1)CSC2", "survival": "inactive: 63%"}, {"smiles": "CCOC(=O)c1ccc(NC(=O)N2CCOc3ccccc32)cc1", "survival": "inactive: 85%"}, {"smiles": "COC(=O)c1c(-c2cccs2)csc1NC(=O)COc1c(C)ccc(C)c1C", "survival": "inactive: 67%"}, {"smiles": "CCOc1ccc(CCNC(=O)c2cnc3sc(N4CCC(C)CC4)nn3c2=O)cc1", "survival": "inactive: 77%"}, {"smiles": "Cc1nn(-c2ccccc2)c(-c2ccccc2)c1C(=O)O", "survival": "inactive: 102%"}, {"smiles": "CNC(=O)Cn1cc(S(=O)(=O)Cc2ccccc2F)c2ccccc21", "survival": "inactive: 66%"}, {"smiles": "CCOc1ccccc1NC(=O)N1CCc2cc(S(=O)(=O)N3CCC(C)CC3)ccc21", "survival": "inactive: 78%"}, {"smiles": "Cc1nn(C(=O)c2ccccc2F)c(C)c1S(=O)(=O)N1CCCCCC1", "survival": "inactive: 70%"}, {"smiles": "CCCCCSc1nc2sc3c(c2c(=O)n1-c1ccccc1)CCN(C(C)=O)C3", "survival": "inactive: 58%"}, {"smiles": "COc1ccc(-c2oc3ncn4nc(COc5c(C)cccc5C)nc4c3c2-c2ccc(OC)cc2)cc1", "survival": "inactive: 79%"}, {"smiles": "C=CCN1C(=O)C(CC(=O)NCC)SC1=Nc1ccccc1OC", "note": "(stereo not drawn)", "survival": "inactive: 109%"}, {"smiles": "Cc1ccc(Cn2c(SCc3ccc(C(=O)N4CCCCCC4)cc3)nc3ccncc32)cc1", "survival": "inactive: 80%"}, {"smiles": "Cc1cccc(NC(=O)c2sc(-n3nc(C)c(Cc4ccc5c(c4)OCO5)c3C)nc2C)c1C", "survival": "inactive: 119%"}, {"smiles": "COc1cc(OC)cc(N2C(=O)N(CC(=O)c3ccc(F)cc3)c3ccccc3S2(=O)=O)c1", "survival": "inactive: 93%"}, {"smiles": "COc1ccc(CN2CCc3nc(SCC(=O)Nc4cc(C)cc(C)c4)[nH]c(=O)c3C2)cc1", "survival": "inactive: 81%"}, {"smiles": "COc1ccc(-c2noc(Cn3c(=O)c4ccccc4n(CC(=O)Nc4cccc(OC)c4)c3=O)n2)cc1", "survival": "inactive: 82%"}, {"smiles": "COc1ccc(-c2cc(C)no2)cc1S(=O)(=O)NC(C)C", "survival": "inactive: 84%"}, {"smiles": "Cc1cc(C)c(C#N)c(SCC(=O)Nc2sc3c(c2C#N)CCC(C(C)(C)C)C3)n1", "note": "(stereo not drawn)", "survival": "inactive: 110%"}, {"smiles": "CCCOC(=O)CSc1ncnc2sc3c(c12)CCC(C)C3", "note": "(stereo not drawn)", "survival": "active: 7%"}, {"smiles": "Cc1ccc(NC(=O)CSc2ncc3c(n2)-c2ccc(Cl)cc2N(C)S3(=O)=O)cc1F", "survival": "inactive: 69%"}]}]}
